Measured values from the supplement of paper PMC11417369.
± gives the standard deviation of the averaged measurements. The list shows a part of the results.

The sequences below were run on PfAP2-LT AP2 domain (GST-tagged) (assay: gcPBM binding intensity (ln(normalized median fluorescence intensity)); higher = stronger DNA binding).
Procedure, shortened: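 Binding of GST-tagged P. falciparum DNA-binding domains, expressed in E. coli and used at about 25 μg on average, was carried out for 1 h in 1× PBS containing 1% milk, 0.2 mg/ml BSA, 0.5% salmon testes DNA and 0.03% Triton X-100. The target was an Agilent 4 × 180k array of primer-extended double-stranded 36-bp intergenic genomic probes plus negative controls, read with Alexa488 anti-GST antibody at 488 nm. Binding intensity is the highest Masliner-normalised natural-log median intensity across replicate spots of either probe orientation.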

| Sequence | gcPBM binding intensity (ln) |
| --- | --- |
| GTCGAGGATATATAAAGTACATATATATATATGATA [XGTACX_site1128] | 8.94 ± 0.42 |
| TAATGTATCTAAAATTGTACAAATATAAATATAAAT [XGTACX_site2764] | 8.71 ± 0.44 |
| CATACATATAAACACACACACACACCCACCCACAAA [CACACA_site8059] | 10.4 |
| TAGTTAGCCCAAGGGGTGCTAATTACTATCTAAATA | 8.46 ± 0.45 |
| TTTATAAATATTCTCACACACTTTTTATTTTAACAA [CACACA_site6454] | 8.63 ± 0.56 |
| AACACCAATTCATATGCACACACATCTGCATATTAT [CACACA_site8523] | 9.63 ± 0.39 |
| TATAGAAGCAAATTATGTACACAATATGGAAAATCA [XGTACX_site3345] | 9.06 ± 0.51 |
| ATTTAAAAAATATATTGTACATATTTTATTATGTTT [XGTACX_site2984] | 8.65 ± 0.6 |
| TACAGTTTTTCTTTGAATTTATCAAGTTTTTTTCCC [XGTACX_negctrl_site60] | 8.67 ± 0.49 |
| TAGTTACCTTAATATTGTACTTTTCTTTCATATATG [XGTACX_site1309] | 8.88 ± 0.56 |
| CACTAAATAAGGAAAGTGCATAAAATAAAGGTTATA [GTGCAC_site9793] | 8.9 ± 0.49 |
| ATAGTTTCTGGTAGCTGTACGAGTCGTAGAGTGCAG [XGTACX_site2022] | 8.83 ± 0.52 |
| GTGTCAAATTTTATAACACACAAAAGGTTATATAAG [CACACA_site7839] | 8.85 ± 0.37 |
| TATTTATACCTATACACACACACACGGATATTTATA [CACACA_site7123] | 9.73 ± 0.17 |
| GATAAAATCACTGGTGCATGTAGATATATAATATTA [TGCATGCA_site589] | 8.8 ± 0.43 |
| AATTAACAAAAACACACACACACACCGACAAAAAAA [CACACA_site4444] | 10.1 ± 0.23 |
| ATATGCTTATTGTAAAGTACATTATTATTTTTCCTA [XGTACX_site5479] | 8.66 ± 0.51 |
| CATATATACGCATACACACACACACCCACACCCACA [CACACA_site1725] | 10.16 ± 0.05 |
| TACAAATATATATGCACACACATATACATACAGATA [CACACA_site5238] | 9.45 ± 0.42 |
| TGATGAAAATCTACATGAATGTTTTTATATCTATAT [GTGCAC_negctrl_site139] | 8.76 ± 0.44 |
| ATGAATAAATAAGACACACACGAAAATAAGTAAAAA [CACACA_site4216] | 9.57 ± 0.45 |
| TATTTTGATTATTCAGTGTATAAATATATATATATA [CACACA_negctrl_site545] | 8.59 ± 0.26 |
| CCAATGTTTTCTTGTGTACACATCATTAAAGAAAAA [CACACA_site5300] | 8.58 ± 0.41 |
| ATTCTATATGAAAAATGTACAAATAAAAATTCTAAG [XGTACX_site8900] | 8.59 ± 0.45 |
| CATGAAAATATTATGTGTACTTAATGCACATTCAAA [XGTACX_site1952] | 8.57 ± 0.42 |
